PubChem BioAssay AID1476 (National Center for Advancing Translational Sciences (NCATS), 2009)
Among all 200,000 compounds or so, about 4,500 (2.2%) were called active. The shares of active, inactive and inconclusive entries below differ from those in the screen. Calls follow the shape of the dose curve; as a rule, active = well fitted inhibition curve with a large enough effect; inconclusive = small, poorly fitted or top-dose-only effect, or effect the other way; inactive = flat fitted curve, though single readings scatter. Where the call is inconclusive, the potency comes from a doubtful curve fit.

Biological target: Cruzipain (Trypanosoma cruzi) (UniProt P25779)
UniProt P25779, sequence (P25779 whole entry, looked up): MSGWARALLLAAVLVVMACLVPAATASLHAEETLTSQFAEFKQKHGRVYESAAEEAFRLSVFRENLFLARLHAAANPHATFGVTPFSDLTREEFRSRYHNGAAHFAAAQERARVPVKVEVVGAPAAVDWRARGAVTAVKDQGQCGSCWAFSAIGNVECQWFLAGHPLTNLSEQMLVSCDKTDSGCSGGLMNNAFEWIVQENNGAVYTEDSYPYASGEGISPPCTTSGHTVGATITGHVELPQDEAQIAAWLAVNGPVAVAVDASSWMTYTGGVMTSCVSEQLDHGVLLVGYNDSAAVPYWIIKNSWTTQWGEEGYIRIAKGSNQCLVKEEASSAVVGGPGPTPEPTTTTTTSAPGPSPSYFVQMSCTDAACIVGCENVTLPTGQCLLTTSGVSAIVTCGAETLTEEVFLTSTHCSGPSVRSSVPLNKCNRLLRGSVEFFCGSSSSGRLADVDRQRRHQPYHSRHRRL
Assay: qHTS Assay for Promiscuous and Specific Inhibitors of Cruzain (without detergent); also: nearly all actives have a fitted effect of over 40% in size;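 as to max response, negative = inhibition: plate controls were enzyme without inhibitor for no effect and buffer without enzyme for full effect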
Details: purified cruzain, Z-FR-AMC fluorescence, no detergent
Outline: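 Purified cruzain at 1.5 nM, pre-incubated 15 min with compound at room temperature in 100 mM sodium acetate pH 5.5, 5 mM DTT, 0.00005% Triton X-100. Reaction started with 2 uM Z-FR-AMC; AMC fluorescence increase over 60 s gives rate.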
Potency is read from the fitted curve at half-maximal effect; tags tell the direction and shape of the fitted curve.

Row | Compound | Potency | max response, negative = inhibition
1 | O=C(Cn1c(=O)nc(-c2ccccc2F)c2cc(Cl)ccc21)Nc1ccccc1C(F)(F)F | inconclusive: 25.1 µM [activator, single point] | –
2 | COc1ccc(C)cc1NC(=O)C(OC(=O)CNC(=O)c1cccc(F)c1)c1ccccc1 (stereo not drawn) | active: 12.6 µM | –
3 | CCc1nnc(NC(=O)CSc2nnc(C)n2Cc2ccccc2)s1 | – | inactive: -2.11%
4 | COc1ccc(-c2nn(CC(=O)NCc3ccccc3)c3c2cnc2ccc(F)cc23)cc1 | inconclusive: 31.6 µM [activator, partial curve] | –
5 | CCCN(CCC)S(=O)(=O)c1ccc(C(=O)Nc2ccc(OCC(=O)N3CCOCC3)cc2)cc1 | inconclusive: 31.6 µM [activator, single point] | –
6 | CC(=O)N1CCN(CC(=O)Nc2ccccc2Sc2ccccc2)CC1 | inconclusive: 39.8 µM [activator, single point] | –
7 | CCN(Cc1ccccc1)C(=O)CN1C(=O)CSc2ccc(S(=O)(=O)N(CC)CC)cc21 | – | inactive: 9.5%
8 | O=C(c1ccco1)N1CCN(c2nc(C(F)(F)F)nc3c2nnn3Cc2ccccc2)CC1 | inconclusive: 39.8 µM [activator, single point] | –
9 | COc1ccccc1C(=O)N1c2ccccc2C(C)(c2ccc(Cl)cc2)CC1(C)C (stereo not drawn) | – | inactive: -24.8%
10 | Cc1ccc(Cn2nc(C)c(NC(=O)CCCn3nc([N+](=O)[O-])c(Cl)c3C)c2C)cc1 | inconclusive: 31.6 µM [activator, single point] | –
11 | CN(C)c1ccc(-c2noc(C3CC(=O)N(c4ccc5c(c4)OCCO5)C3)n2)cc1 (stereo not drawn) | – | inactive: -18.7%
12 | O=C(Nc1ccc(S(=O)(=O)N2CCCCC2c2cccnc2)cc1)c1ccc(F)cc1 (stereo not drawn) | – | inactive: -1.31%
13 | O=C(Nc1nc(-c2ccccn2)cs1)c1ccc(Br)s1 | inconclusive: 25.1 µM [inhibitor, single point] | –
14 | NC1=N[C@H](c2ccc(Cl)cc2)N(c2ccc(S(=O)(=O)Nc3ncccn3)cc2)C(N)=N1 | – | inactive: 3.25%
15 | O=C(/C=C/c1cccs1)N1CCOCC1 | active: 6.31 µM | –
16 | CCc1ccc(S(=O)(=O)c2nnn3c2nc(NCc2cccc(OC)c2)c2cc(Cl)ccc23)cc1 | inconclusive: 6.31 µM [inhibitor, single point] | –
17 | O=C1N/C(=C/c2cccn2-c2ccc(F)cc2)C(=O)N1Cc1ccccc1 | inconclusive: 3.16 µM [inhibitor, full curve, poor fit] | –
18 | Cn1cc(C(=O)NCC2COc3ccccc3O2)c(=O)c2cc(S(=O)(=O)N3CCCCC3)ccc21 (stereo not drawn) | inconclusive: 20 µM [activator, single point] | –
19 | COc1ccccc1CCNC(=O)C(=O)NCC(c1cccs1)S(=O)(=O)c1ccc(F)cc1 (stereo not drawn) | – | inactive: -5.68%
20 | CN(C)c1ccc(NC(=O)CSc2nc3ccccc3c(=O)n2C2CCCCC2)cc1 | active: 12.6 µM | –
21 | Cn1cccc1/C=C1\CCC/C(=C\c2cccn2C)C1=O | inconclusive: 31.6 µM [activator, single point] | –

Row | Compound | Potency | max response, negative = inhibition
22 | COc1ccc(Oc2ncc3nc(-c4ccccc4)c(=O)n(Cc4cccs4)c3n2)cc1 | active: 25.1 µM | –
23 | CC(=O)c1c(NCc2ccccc2)nc(=O)n(-c2ccccc2)c1C | inconclusive: 2.51 µM [inhibitor, partial curve] | –
24 | CCOC(=O)N1CCN(C(=O)CSc2nnc(COc3ccc(Cl)cc3)o2)CC1 | inconclusive: 25.1 µM [activator, single point] | –
25 | CCOC(=O)N1CCN(C(=O)CSCC(=O)Nc2nc(-c3ccc(C)cc3)cs2)CC1 | inconclusive: 39.8 µM [activator, single point] | –
26 | O=C(CCC(=O)N1CCN(S(=O)(=O)c2ccc(Cl)cc2)CC1)Nc1cccc(Br)c1 | inconclusive: 31.6 µM [activator, single point] | –
27 | COc1ccc(CCNc2nc(SCc3ccc(F)cc3)nc3ccccc23)cc1OC | – | inactive: 11.3%
28 | CCn1c(N2CCN(CC(=O)c3ccc(OC)cc3)CC2)nc2ccccc21 | – | inactive: -13.2%
29 | Cc1ccc(-n2cc(-c3ccccc3)c3c(NN4CCOCC4)ncnc32)cc1 | inconclusive: 39.8 µM [activator, single point] | –
30 | COc1ccc(-c2csc(NC(=O)CSc3ccc(Br)cc3)n2)c(OC)c1 | inconclusive: 31.6 µM [inhibitor, single point] | –
31 | CC(Oc1ccc(F)cc1)C(=O)Nc1nc(-c2ccc(F)cc2)ns1 (stereo not drawn) | – | inactive: -2.52%
32 | O=C(CC1SC(=Nc2ccccc2)N(CCCO)C1=O)Nc1ccc(Cl)cc1 (stereo not drawn) | inconclusive: 39.8 µM [activator, single point] | –
33 | COc1ccccc1-n1c(=O)c2c3c(sc2n(C)c1=O)CN(C(C)=O)CC3 | – | inactive: -3.93%
34 | O=C1[C@H]2[C@H]3[C@H](O)[C@H](O)C/C(=N\OC[C@@H](O)COCc4ccco4)[C@@H]3CC[C@H]2C(=O)N1c1ccc(F)cc1F | inconclusive: 31.6 µM [activator, single point] | –
35 | CCC1=Nc2cc(C(=O)NCC(C)c3ccccc3)ccc2Sc2ccc(C)cc21 (stereo not drawn) | active: 12.6 µM | –
36 | CCOC(=O)c1ccc(OCC2c3cc(OC)c(OC)cc3CCN2C(=O)c2ccc(S(=O)(=O)N3CCCC3)cc2)cc1 (stereo not drawn) | inconclusive: 6.31 µM [activator, full curve, poor fit] | –
37 | CCOC(=O)/C(=C\c1ccc([N+](=O)[O-])cc1)C(=O)c1cc(C(C)=O)c(Nc2ccccc2)s1 | inconclusive: 20 µM [inhibitor, single point] | –
38 | Cc1ccc(C)c(CN2C(=O)c3ccccc3S(=O)(=O)c3ccc(C(=O)N4CCc5ccccc54)cc32)c1 | active: 31.6 µM | –
39 | CC(Sc1nc(-c2ccccc2)cc(C(F)(F)F)n1)C(=O)Nc1sc2c(c1C#N)CCC2 (stereo not drawn) | inconclusive: 39.8 µM [inhibitor, single point] | –
40 | Cc1ccc(NC(=O)CCn2nc(C)c(S(=O)(=O)N3CCCCC3)c2C)cc1Cl | inconclusive: 39.8 µM [activator, single point] | –
41 | CCOC(=O)c1c(C)sc(-c2c(-c3cc(C)ccc3C)[nH]c3c2c(=O)n(C)c(=O)n3C)c1O | inconclusive: 39.8 µM [activator, single point] | –
42 | COc1ccccc1N1CCN(C(=O)c2ccccc2Oc2ccccc2)CC1 | inconclusive: 31.6 µM [activator, single point] | –

Row | Compound | Potency | max response, negative = inhibition
43 | COc1ccc(NC(=O)N2CCc3c(sc4c3CCCC4)C2c2ccccc2OC)cc1 (stereo not drawn) | inconclusive: 39.8 µM [inhibitor, single point] | –
44 | CCCCNC(=O)c1ccc2nc(-c3ccco3)c(-c3ccco3)nc2c1 | active: 15.8 µM | –
45 | CN(C)c1ccc(C2CC(c3ccccc3)=Nc3nc(-c4ccccc4)cn32)cc1 (stereo not drawn) | inconclusive: 12.6 µM [inhibitor, partial curve] | –
46 | Cc1ccccc1OC[C@H](O)CO | – | inactive: 2.66%
47 | CS(=O)(=O)N(Cc1ccccc1)c1ccc(C(=O)N2CCN(c3cccc(Cl)c3)CC2)cc1 | inconclusive: 20 µM [activator, partial curve] | –
48 | CCOc1ccc2nc(NC(=O)CSc3nc4c(c(=O)n(C)c(=O)n4C)n3C(C)C)sc2c1 | inconclusive: 12.6 µM [activator, partial curve] | –
49 | COc1ccc(Cn2c(=O)n(-c3ccccc3C)c(=O)c3c4c(sc32)CN(C(C)=O)CC4)cc1 | inconclusive: 25.1 µM [activator, partial curve] | –
50 | CC1(C)Cc2c(C#N)c(N3CCN(C(=O)c4ccccc4Cl)CC3)nc(-c3ccco3)c2CS1 | inconclusive: 39.8 µM [activator, single point] | –
51 | Cc1ccc(CN2C(=O)CN(C3CCC(C)CC3)C(=O)C2c2ccc(F)cc2)cc1 (stereo not drawn) | – | inactive: 6.3%
52 | Cc1nc2cc(C(F)(F)F)ccc2n1C1CCN(CC(=O)NC(C)(C)C)CC1 | inconclusive: 10 µM [activator, partial curve] | –
53 | Cc1cc(C)cc(-c2nnc(SCC(=O)N3CCN(C(=O)c4ccco4)CC3)o2)c1 | inconclusive: 31.6 µM [activator, single point] | –
54 | Cc1ccc(Nc2nc(N)c([N+](=O)[O-])c(NCc3ccco3)n2)cc1C | inconclusive: 39.8 µM [inhibitor, single point] | –
55 | CCC(=O)NC(=S)Nc1ccc(NC(=O)c2ccc(OC)cc2)cc1 | inconclusive: 39.8 µM [inhibitor, single point] | –
56 | C=CCSc1nc2ccccc2n1S(=O)(=O)c1ccc(C)cc1 | – | inactive: -8.67%
57 | CC(C)NC(=O)CSc1nc(-c2cccs2)cc(-c2ccccc2)c1C#N | active: 20 µM | –
58 | CCOC(=O)c1cccc(NC(=O)c2ccc3nc(C(C)C)oc3c2)c1 | inconclusive: 31.6 µM [activator, single point] | –
59 | CSc1ccc(CCNC(=O)CCc2c(C)nc3c(c(C)nn3-c3ccc(C)c(C)c3)c2C)cc1 | – | inactive: -5.87%
60 | N#Cc1cc(C#N)c(N2CCN(c3cccc(Cl)n3)CC2)nc1N | inconclusive: 31.6 µM [inhibitor, single point] | –
61 | NC(=O)CNC(=O)[C@@H]1CC2(CC(c3ccc(Cl)cc3)=NO2)CN1C(=O)c1ccc(Br)cc1 (stereo partly drawn) | inconclusive: 10 µM [activator, partial curve] | –
62 | O=C(c1cccc(S(=O)(=O)N2CCCCC2)c1)N1CCN(S(=O)(=O)c2ccc(F)cc2)CC1 | inconclusive: 39.8 µM [activator, single point] | –
63 | CCOC(=O)C1=C(C)NC(C)=C(C(=O)OCC)C1/C=C/c1ccccc1OC | inconclusive: 39.8 µM [activator, single point] | –
